Results published in the supplement of paper PMC3724861.
The list shows a part of the results.

The sequences below were run on T1, Caupolican (Caup) homeodomain DNA-binding domain (assay: PBM E-score (8-mer, recovered from the published 9-mer minima) (E-score (dimensionless, -0.5 to 0.5)); Drosophila protein; higher = stronger relative binding preference, active = 0.31 or more).
T1 sequence: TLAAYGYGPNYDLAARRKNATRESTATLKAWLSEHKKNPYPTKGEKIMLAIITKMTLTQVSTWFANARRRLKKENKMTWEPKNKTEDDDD
Procedure, shortened: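 Caup's homeodomain DNA-binding domain (residues 214-303) was produced by in vitro transcription and translation and applied at 100 nM to custom-designed protein binding microarrays. Each value is an enrichment score giving relative binding preference for a short DNA word; higher means stronger. Published 9-mer scores were the minimum of their two constituent 8-mer scores, and the 8-mer values were recovered from those minima. A cutoff of 0.31 marks candidate binding sequences.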

Sequence | PBM E-score
ACTAGCAG | inactive: 0.0766
ACCGATAA | ≥ 0.101
AGCCCTTA | inactive: -0.144
GTCGTAAC | inactive: 0.162
ATAAGTTA | inactive: 0.188
GGTAATAC | inactive: 0.0655
CCAGCAGC | inactive: -0.177
AGGGTCAA | inactive: -0.0498
GCCTCTAC | inactive: -0.135
GAAGCGCA | inactive: -0.229
GATGAGGC | inactive: -0.115
AGTGGTTC | inactive: 0.0644
TTACCAAA | inactive: 0.0526
ATAAAAGC | inactive: -0.0425
CACGCCAA | inactive: -0.0807
GACGTATA | inactive: 0.0997
ACGTCAGT | inactive: -0.0491
CAATCGGA | inactive: 0.0187
CACGTCGG | inactive: -0.0125
AGTGTCGG | inactive: 0.0481
CCTGTACG | inactive: 0.0896
AATCGTGA | inactive: 0.102
CCTATCCG | inactive: -0.134

Sequence | PBM E-score
CGCGTTAA | inactive: -0.0956
CGGCGACG | inactive: -0.177
CACCCCTG | inactive: -0.045
ACCGTAGG | inactive: -0.128
AATCGTCA | inactive: 0.0937
GCCCGCGC | inactive: -0.231
CAGGCAGG | inactive: -0.0476
GCTAATAA | inactive: 0.133
TACATACA | active: 0.415
GATGATAC | inactive: 0.0554
ATAAACGG | inactive: 0.0368
AGAAAAGG | inactive: 0.00439
AAAGGTGA | inactive: -0.0106
GGATTGCA | inactive: -0.0443
GGCGAGCA | inactive: -0.131
CCGGTGAG | inactive: -0.188
GTCTAAAA | inactive: -0.0624
CGCGGTTA | inactive: -0.0649
ACGTTTTG | inactive: 0.0428
AGTATGAT | inactive: 0.17
TCATCGAA | inactive: -0.0374
CCGATCGC | inactive: -0.0771
CGAACACA | inactive: 0.167

Sequence | PBM E-score
AGAGAATC | inactive: -0.0669
GGGAGATA | inactive: -0.114
CTAAGTAA | inactive: 0.0102
ACGTAACG | inactive: 0.0522
CCTGGCCC | inactive: -0.251
CTCAATCA | inactive: 0.0591
AGGTTGCC | inactive: -0.0843
AATCTGCT | inactive: 0.0174
AGGCACCT | inactive: -0.165
CTCCGTCA | inactive: -0.114
AGTGGGTC | inactive: -0.178
AGCGCAAG | inactive: -0.181
CGCTGCGA | inactive: -0.0621
CTTTCCCA | inactive: -0.162
ACGCTCTA | inactive: -0.0243
AAAATGAT | inactive: 0.177
TAATGATA | inactive: 0.091
GGTGCCAC | inactive: -0.202
AAAGTTGG | inactive: 0.0235
CCGTTACG | inactive: -0.0459
GACGAGTC | inactive: -0.057
AGCGTAAC | inactive: 0.134
GGAAGACC | inactive: -0.172

Sequence | PBM E-score
AACTGATT | inactive: 0.159
AGCCAACT | inactive: -0.103
GAGCGTAA | inactive: -0.0201
ACGCCGAT | ≥ -0.0491
ATTAGAAA | inactive: 0.043
CACCGGGA | inactive: -0.192
AGTATACT | inactive: 0.163
CACATAAG | inactive: 0.0233
GCAAAGGC | inactive: -0.087
CACAACCC | inactive: -0.021
GAAGAGAC | inactive: -0.0126
AACAGCTA | inactive: 0.189
CCGCCCTA | inactive: -0.205
AATACGAA | inactive: 0.158
GTAGAAGA | inactive: -0.0473
CATTTAGC | inactive: 0.0719
AGCGTGCG | inactive: -0.16
CCATATAA | inactive: 0.0843
GGAAGAAA | inactive: -0.0587
AAGAAGGG | inactive: -0.15
TAGGGACA | inactive: 0.11
GCCAGGAC | inactive: -0.128
ATGCAAGG | inactive: -0.0685

Sequence | PBM E-score
AGTTTGGA | inactive: 0.04
AAAATATA | inactive: 0.158
AAACCTAG | inactive: -0.0413
GCAGCCCA | inactive: -0.15
ATATAACC | inactive: 0.0533
GCCGCACA | inactive: -0.0469
CCCTTTGA | inactive: -0.0651
GATTTGCC | inactive: -0.0122
CTATAAAG | inactive: 0.00838
AGCTACCA | inactive: 0.0492
AAGTTCAA | inactive: 0.0707
AATCTCCC | inactive: -0.0793
GAGCCAAA | inactive: -0.101
TCAACTCA | inactive: 0.0084
AATCAGGT | inactive: 0.136
AAACAGGT | inactive: 0.171
CAATTAAG | inactive: 0.0577
AGCTGTTC | inactive: 0.0293
CTGTGGCC | inactive: -0.17
